From ChEMBL document CHEMBL4888484, “Replenishing the malaria drug discovery pipeline: Screening and hit evaluation of the MMV Hit Generation Library 1 (HGL1) against asexual blood stage Plasmodium falciparum ,using a nano luciferase reporter read-out” (2022)
In all, about 150,000 compounds went through this assay and about 540 (0.36%) showed an effect of 50% or more. This is one part of the list.

What follows are molecules tested on Plasmodium falciparum (assay: Primary screen in NF54 nanoGlo assay, in single point, at 2uM, 72h; a lower Z score goes with more inhibition). Conditions: timepoint 72 hour.
Format: functional, Erythrocyte

SMILES | % Inhibition | Z score
CCCN(CCC)S(=O)(=O)Cc1ccccc1 | -8% | 0.99
CN(Cc1cnccn1)C(=O)Cn1ccc2ccccc21 | -6% | 0.66
CCCC1(CCC)NC(=O)N([C@@H](C)C(=O)Nc2ccc(N3CCOCC3)cc2)C1=O | -4% | 0.55
COC(=O)C[C@H](NC(C)=O)C(=O)Nc1cccc2c1OC(C)(C)CC2 | 26% | -3.32
CN(C(=O)N1CCN(C(=O)N(C)c2ccccc2)CC1)c1ccccc1 | -11% | 1.42
Cc1ccc(C(=O)NC(c2ccc3c(c2)CCO3)[C@H]2C[C@@H](O)C2)c(F)c1 (stereo partly specified) | -11% | 1.7
C[C@@]1(C(=O)NC2CCCCCCC2)CCC(=O)N1Cc1ccccc1 | -1% | 0.1
O=C(Cc1ccc(F)cc1)N1CCN(c2nc3ccccc3c3nnc(-c4ccco4)n23)CC1 | 1% | -0.08
Cc1nc2ccc(-n3ncnc3[C@H]3CCCS(=O)(=O)C3)cc2s1 | -14% | 1.94
O=C(c1cc(C2CC2)on1)N(Cc1ccco1)C1CC1 | -13% | 1.31
CC(C)n1ncc2[nH]c(-c3ccc(-c4ccccn4)cc3)nc21 | 3% | -0.39
CC(C)(NC(=O)[C@H](O)c1ccccc1)C1CC1 | -16% | 1.91
CS(=O)(=O)N1C[C@H]2CN(Cc3cc(Br)ccc3F)CC[C@@]2(CO)C1 | 0% | -0.04
C#CCN(Cc1nncn1C)CC1CC1 | -4% | 0.67
CN1CC[C@](C)(CNC(=O)c2cn(CCc3ccccc3)cc(C(=O)O)c2=O)C1 | 1% | -0.16
c1csc([C@H]2NCCn3cccc32)c1 | -22% | 2.83
COCCc1nnc2n1CCC1(CC2)CCN(C(=O)C(C)C)CC1 | -6% | 0.59
Cc1nc(-c2ccccc2)nc2[nH]c(-c3ccccc3)cc12 | -4% | 0.51
COc1ccnc(CN(C)Cc2c(C)noc2C)c1OC | -6% | 0.99
O=C([C@H]1CCc2nccn2C1)N1Cc2cccnc2C1 | -11% | 2.01
CCOC(=O)c1cnn(-c2nc(-c3ccc(OC)cc3)cs2)c1CN(C)Cc1cc(C)no1 | -12% | 1.38
C=CCNC(=O)N(Cc1ccc(F)cc1)c1cccc(CC(=O)NCc2ccc(F)cc2)c1 | -9% | 0.86
CC1CCC(NC(=O)CON=C(N)c2ccc(OCc3ccccc3)cc2)CC1 (stereo unspecified) | -13% | 2.27
CNC(=O)c1noc(CNC(=O)c2cc(C)n(C)c2C)n1 | -2% | 0.33
Cc1[nH]c2ccccc2c1C(=O)C(C#N)C(=O)C1CC1C (stereo unspecified) | 0% | -0.03
CN(CC(=O)Nc1ccc2c(c1)CCC2)Cc1ccco1 | -7% | 0.72
CC(C)NC(=O)c1csc(CN(CCC(c2ccccc2)c2ccccc2)Cc2ccc(F)cc2)n1 | -10% | 1.69

SMILES | % Inhibition | Z score
CCS(=O)(=O)C1CN(Cc2ccn(CC(F)(F)F)n2)C1 | -6% | 0.87
CCC(C)[C@H](NC(=O)OC(C)(C)C)C(=O)NC[C@H]1CC[C@H](C(=O)N[C@H](C(=O)O)C(C)C)CC1 (stereo partly specified) | -4% | 0.48
Cc1ccc(N2CN(CC(=O)N3CCCCC3)S(=O)(=O)c3cccnc32)cc1 | -22% | 2.41
COc1cc(C)cc2c(C)c(C(=O)N3C[C@@H](C)[C@](C)(CN)C3)oc12 | 23% | -2.86
CC(=O)N(Cc1cccnc1)[C@H]1CCCN(C(=O)c2sc(C)nc2C)C1 | -9% | 1.54
Cc1nnc(N(C)[C@H]2CCC(=O)N(C)C2)nc1C | -6% | 1.28
Cc1cc(C(F)(F)F)cc(=O)n1C[C@H]1CCCCO1 | -9% | 1.27
CC(C)N(CC1CC1)C(=O)NC1CN(S(=O)(=O)N(C)C)C1 | -11% | 1.45
CC(C)Cc1ccc(CN2CCN([C@H]3CCNC3)CC2)s1 | -6% | 0.81
Cc1ccc(Nc2ccc3ncnc4c3c2C(=O)c2ccccc2-4)cc1 | -5% | 0.62
COc1ccc(CC(=O)Nc2cnc(N3CCCCCC3)nc2)cc1 | -20% | 1.75
COc1c(CNC(=O)c2cc[nH]c2C2CCC2)c(C)nn1C | -47% | 5.56
O=C(c1sc2ccccc2c1Cl)N1CCc2ccccc21 | -8% | 1.51
CC(CNC1C2CCCOC2C1(C)C)N1CCOCC1C (stereo unspecified) | -11% | 1.37
Cc1cc(-c2cccc(C(=O)N3CC[C@@H](O)C3)c2)cnc1-n1cnnc1 | -5% | 0.44
CCOCCC(=O)NCc1cnc(C)c(C)c1 | -11% | 2.1
Cc1ocnc1C(=O)N1CCC2(CC1)CC(=O)N(C[C@H]1CCCO1)C2 | -16% | 1.62
CCCN(CCOc1c(Cl)cc(Cl)c(O)c1Cl)C(N)=O | 0% | 0.05
COC(=O)c1cnc(N2CCC[C@H]2C2CCCCC2)nc1 | -8% | 1.32
O=C(CCC1CCCC1)NS(=O)(=O)c1cccc2c1N=S=N2 | -14% | 1.62
COc1ccc(S(=O)(=O)N[C@@H](C)C(=O)Nc2cc(S(=O)(=O)Nc3ccccc3Cl)ccc2N2CCCC2)cc1 | 11% | -1.16
O=C1CN(c2ccnc(C(=O)N3CC[C@@H]4CCC[C@@H]43)c2)CCN1 | -7% | 1.27
CCN(CC(=O)NCc1cccs1)CC(=O)Nc1cccc(S(=O)(=O)N2CCCCC2)c1 | -9% | 0.96
Cc1ccc(NS(C)(=O)=O)c(NC(=O)CC2=CCCCC2)c1 | -11% | 1.54
Cc1ccccc1NC(=O)CC(=O)N1CCC(O)(Cn2ccnc2)CC1 | -4% | 0.74
Cc1nc(C(=O)N2CC[C@H](Oc3ccccc3)C2)c[nH]1 | -10% | 1.09
